Article PMC5472308, “Characterization of the regulation of a plant polysaccharide utilization operon and its role in biofilm formation in Bacillus subtilis” (PLoS ONE, 2017)

What was measured:
GanA [1] = biological target: T1, GanA (Bacillus subtilis, UniProt O07012); conditions: 2.5 mM ONPG; Z buffer; ganA deletion abolishes activity
GanA [2] = biological target: T1, GanA; conditions: 2.5 mM ONPG; Z buffer; putatively competitive; catalytic product; qualitative

T1 sequence (O07012 whole entry): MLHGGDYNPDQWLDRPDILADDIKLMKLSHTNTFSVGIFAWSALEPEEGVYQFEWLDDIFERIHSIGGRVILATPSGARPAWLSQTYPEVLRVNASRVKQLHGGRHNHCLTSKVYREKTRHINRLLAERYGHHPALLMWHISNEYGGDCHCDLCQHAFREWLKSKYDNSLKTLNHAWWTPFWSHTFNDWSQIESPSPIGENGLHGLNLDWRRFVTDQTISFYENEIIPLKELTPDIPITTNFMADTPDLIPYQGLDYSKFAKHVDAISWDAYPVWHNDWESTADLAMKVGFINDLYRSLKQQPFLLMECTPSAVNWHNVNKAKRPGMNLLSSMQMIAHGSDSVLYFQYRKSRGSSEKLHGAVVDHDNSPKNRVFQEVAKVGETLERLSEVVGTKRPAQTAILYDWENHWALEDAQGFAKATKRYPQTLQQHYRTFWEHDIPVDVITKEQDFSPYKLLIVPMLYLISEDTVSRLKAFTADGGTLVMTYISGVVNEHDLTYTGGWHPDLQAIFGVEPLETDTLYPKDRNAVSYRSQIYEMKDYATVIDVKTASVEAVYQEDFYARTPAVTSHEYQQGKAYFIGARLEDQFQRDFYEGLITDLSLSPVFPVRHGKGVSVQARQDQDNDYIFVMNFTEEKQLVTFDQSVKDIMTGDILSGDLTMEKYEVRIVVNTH

Structure (SMILES)	ONPG hydrolysis in cleared lysate, absorbance at 420 nm (GanA [1])	% activity with 2.5-20 mM galactose (GanA [2])
O=[N+]([O-])c1ccccc1O[C@@H]1O[C@H](CO)[C@H](O)[C@H](O)[C@H]1O [ONPG]	The catalytic activity of GanA was assayed via ONPG hydrolysis	–
OC[C@H]1OC(O)[C@H](O)[C@@H](O)[C@H]1O (some centres unmarked) [galactose]	–	the catalytic activity of GanA (in the cleared protein lysate) was strongly inhibited by addition of galactose
